The supplement of paper PMC8728848
The other results are listed elsewhere or left out.

Tests used:
Experiment in all cases: glycan array binding signal (z-score within array); higher = stronger binding
Details in all cases: glycan notation: IUPAC condensed, linker removed; mutation: F335Y
[1] = molecular target: Gal(b1-2)Gal
How it was run: (§1)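 The Consortium for Functional Glycomics database supplied 3228 glycan arrays, of which those lacking an available protein sequence were dropped. The binding signal, a within-array Z-score, was averaged across arrays of the same protein sequence and across linkers. Negative scores can be read as non-binding.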

[2] = molecular target: Gal(b1-3)Gal
How it was run: as §1

[3] = molecular target: Gal(b1-3)Gal(b1-4)GlcNAc
How it was run: as §1

[4] = molecular target: Gal(b1-3)GalNAc
How it was run: as §1

[5] = molecular target: Gal(b1-3)GalNAc(b1-3)Gal(a1-4)Gal(b1-4)Glc
How it was run: as §1

[6] = molecular target: Gal(b1-3)GalNAc(b1-4)Gal(b1-4)Glc
How it was run: as §1

[7] = molecular target: Gal(b1-3)GalNAc(b1-4)[Neu5Ac(a2-3)]Gal(b1-4)Glc
How it was run: as §1

[8] = molecular target: Gal(b1-3)GlcNAc
How it was run: as §1

[9] = molecular target: Gal(b1-3)GlcNAc(b1-2)Man(a1-3)[Gal(b1-3)GlcNAc(b1-2)Man(a1-6)]Man(b1-4)GlcNAc(b1-4)GlcNAc
How it was run: as §1

[10] = molecular target: Gal(b1-3)GlcNAc(b1-3)Gal(b1-3)GlcNAc
How it was run: as §1

[11] = molecular target: Gal(b1-3)GlcNAc(b1-3)Gal(b1-4)Glc
How it was run: as §1

[12] = molecular target: Gal(b1-3)GlcNAc(b1-3)Gal(b1-4)GlcNAc
How it was run: as §1

[13] = molecular target: Gal(b1-3)[Fuc(a1-4)]GlcNAc
How it was run: as §1

[14] = molecular target: Gal(b1-3)[Fuc(a1-4)]GlcNAc(b1-3)Gal(b1-3)[Fuc(a1-4)]GlcNAc
How it was run: as §1

[15] = molecular target: Gal(b1-3)[Fuc(a1-4)]GlcNAc(b1-3)Gal(b1-4)GlcNAc
How it was run: as §1

[16] = molecular target: Gal(b1-3)[Fuc(a1-4)]GlcNAc(b1-3)Gal(b1-4)[Fuc(a1-3)]GlcNAc
How it was run: as §1

[17] = molecular target: Gal(b1-3)[GlcNAc(b1-6)]GalNAc
How it was run: as §1

[18] = molecular target: Gal(b1-3)[Neu5Ac(a2-6)]GalNAc
How it was run: as §1

[19] = molecular target: Gal(b1-3)[Neu5Ac(a2-6)]GlcNAc(b1-6)Gal(b1-4)Glc
How it was run: as §1

[20] = molecular target: Gal(b1-3)[Neu5Ac(b2-6)]GalNAc
How it was run: as §1

[21] = molecular target: Gal(b1-4)GalNAc(a1-3)[Fuc(a1-2)]Gal(b1-4)GlcNAc
How it was run: as §1

[22] = molecular target: Gal(b1-4)GalNAc(b1-3)[Fuc(a1-2)]Gal(b1-4)GlcNAc
How it was run: as §1

[23] = molecular target: Gal(b1-4)Glc
How it was run: as §1

[24] = molecular target: Gal(b1-4)Glc6S
How it was run: as §1

[25] = molecular target: Gal(b1-4)GlcNAc
How it was run: as §1

[26] = molecular target: Gal(b1-4)GlcNAc(a1-6)Gal(b1-4)GlcNAc
How it was run: as §1

[27] = molecular target: Gal(b1-4)GlcNAc(b1-2)Man(a1-3)[Gal(b1-4)GlcNAc(b1-2)Man(a1-6)]Man(b1-4)GlcNAc(b1-4)GlcNAc
How it was run: as §1

[28] = molecular target: Gal(b1-4)GlcNAc(b1-3)Gal(b1-3)GlcNAc
How it was run: as §1

[29] = molecular target: Gal(b1-4)GlcNAc(b1-3)Gal(b1-4)Glc
How it was run: as §1

[30] = molecular target: Gal(b1-4)GlcNAc(b1-3)Gal(b1-4)GlcNAc
How it was run: as §1

[31] = molecular target: Gal(b1-4)GlcNAc(b1-3)Gal(b1-4)GlcNAc(b1-3)Gal(b1-4)GlcNAc
How it was run: as §1

[32] = molecular target: Gal(b1-4)GlcNAc(b1-3)Gal(b1-4)[Fuc(a1-3)]GlcNAc(b1-3)Gal(b1-4)[Fuc(a1-3)]GlcNAc
How it was run: as §1

[33] = molecular target: Gal(b1-4)GlcNAc(b1-3)GalNAc
How it was run: as §1

[34] = molecular target: Gal(b1-4)GlcNAc(b1-3)[Gal(b1-4)GlcNAc(b1-6)]Gal(b1-4)GlcNAc
How it was run: as §1

[35] = molecular target: Gal(b1-4)GlcNAc(b1-3)[GlcNAc(b1-6)]Gal(b1-4)GlcNAc
How it was run: as §1

[36] = molecular target: Gal(b1-4)GlcNAc(b1-6)Gal(b1-4)GlcNAc
How it was run: as §1

[37] = molecular target: Gal(b1-4)GlcNAc(b1-6)Gal(b1-4)GlcNAc(b1-6)GalNAc
How it was run: as §1

[38] = molecular target: Gal(b1-4)GlcNAc(b1-6)GalNAc
How it was run: as §1

[39] = molecular target: Gal(b1-4)GlcNAc(b1-6)[Gal(b1-3)]GalNAc
How it was run: as §1

[40] = molecular target: Gal3S(b1-3)GalNAc
How it was run: as §1

[41] = molecular target: Gal3S(b1-3)GlcNAc
How it was run: as §1

[42] = molecular target: Gal3S(b1-3)[Fuc(a1-4)]GlcNAc
How it was run: as §1

[43] = molecular target: Gal3S(b1-4)Glc
How it was run: as §1

[44] = molecular target: Gal3S(b1-4)Glc6S
How it was run: as §1

[45] = molecular target: Gal3S(b1-4)GlcNAc
How it was run: as §1

[46] = molecular target: Gal3S(b1-4)GlcNAc6S
How it was run: as §1

[47] = molecular target: Gal3S(b1-4)[Fuc(a1-3)]Glc
How it was run: as §1

[48] = molecular target: Gal3S4S(b1-4)GlcNAc
How it was run: as §1

[49] = molecular target: Gal3S6S(b1-4)GlcNAc
How it was run: as §1

[50] = molecular target: Gal3S6S(b1-4)GlcNAc6S
How it was run: as §1

[51] = molecular target: Gal4S(b1-4)GlcNAc
How it was run: as §1

[52] = molecular target: Gal4S6S(b1-4)GlcNAc
How it was run: as §1

[53] = molecular target: Gal6S(b1-4)Glc
How it was run: as §1

[54] = molecular target: Gal6S(b1-4)Glc6S
How it was run: as §1

[55] = molecular target: Gal6S(b1-4)GlcNAc
How it was run: as §1

[56] = molecular target: Gal6S(b1-4)GlcNAc6S
How it was run: as §1

[57] = molecular target: GalNAc(a1-3)Gal
How it was run: as §1

[58] = molecular target: GalNAc(a1-3)GalNAc
How it was run: as §1

[59] = molecular target: GalNAc(b1-3)Gal
How it was run: as §1

[60] = molecular target: GalNAc(b1-3)Gal(a1-4)Gal(b1-4)GlcNAc
How it was run: as §1

B1: Surfactant Protein D (Human); Neck + Carbohydrate Recognition Domain (NCRD) (Homo sapiens) (protein)
chain: MLLFLLSALVLLTQPLGYLEAEMKTYSHRTMPSACTLVMCSSVESGLPGRDRDGREGPRGEKGDPGLPGAAGQAGMPGQAGPVGPKGDNGSVGEPGPKGDTGPSGPPGPPGVPGPAGREGALGKQGNIGPQGKPGPKGEAGPKGEVGAPGMQGSAGARGLAGPKGERGVPGERGVPGNTGAAGSAGAMGPQGSPGARGPPGLKGDKGIPGDKGAKGESGLPDVASLRQQVEALQGQVQHLQAAFSQYKKVELFPNGQSVGEKIFKTAQFVKPFTEAQLLCTQAGGQLASPRSAAENAALQQLVVAKNEAAFLSMTDSKTEGKFTYPTGESLVYSNWAPGEPNDDGGSEDCVEIYTNGKWNDRACGEKRLVVCEF
glycan array binding signal (z-score) [1]: -0.189 | glycan array binding signal (z-score) [2]: -0.19 | glycan array binding signal (z-score) [3]: -0.183 | glycan array binding signal (z-score) [4]: -0.19 | glycan array binding signal (z-score) [5]: -0.193 | glycan array binding signal (z-score) [6]: -0.192 | glycan array binding signal (z-score) [7]: -0.174 | glycan array binding signal (z-score) [8]: -0.182 | glycan array binding signal (z-score) [9]: -0.191 | glycan array binding signal (z-score) [10]: -0.188 | glycan array binding signal (z-score) [11]: -0.194 | glycan array binding signal (z-score) [12]: -0.19 | glycan array binding signal (z-score) [13]: -0.187 | glycan array binding signal (z-score) [14]: 0.096 | glycan array binding signal (z-score) [15]: -0.075 | glycan array binding signal (z-score) [16]: -0.194 | glycan array binding signal (z-score) [17]: -0.185 | glycan array binding signal (z-score) [18]: -0.191 | glycan array binding signal (z-score) [19]: -0.188 | glycan array binding signal (z-score) [20]: -0.19 | glycan array binding signal (z-score) [21]: -0.182 | glycan array binding signal (z-score) [22]: -0.167 | glycan array binding signal (z-score) [23]: -0.187 | glycan array binding signal (z-score) [24]: -0.175 | glycan array binding signal (z-score) [25]: -0.184 | glycan array binding signal (z-score) [26]: -0.191 | glycan array binding signal (z-score) [27]: -0.185 | glycan array binding signal (z-score) [28]: -0.189 | glycan array binding signal (z-score) [29]: -0.193 | glycan array binding signal (z-score) [30]: -0.192 | glycan array binding signal (z-score) [31]: -0.188 | glycan array binding signal (z-score) [32]: -0.172 | glycan array binding signal (z-score) [33]: -0.191 | glycan array binding signal (z-score) [34]: -0.188 | glycan array binding signal (z-score) [35]: -0.191 | glycan array binding signal (z-score) [36]: -0.192 | glycan array binding signal (z-score) [37]: -0.185 | glycan array binding signal (z-score) [38]: -0.191 | glycan array binding signal (z-score) [39]: -0.185 | glycan array binding signal (z-score) [40]: -0.193 | glycan array binding signal (z-score) [41]: -0.185 | glycan array binding signal (z-score) [42]: -0.187 | glycan array binding signal (z-score) [43]: -0.174 | glycan array binding signal (z-score) [44]: -0.171 | glycan array binding signal (z-score) [45]: -0.187 | glycan array binding signal (z-score) [46]: -0.186 | glycan array binding signal (z-score) [47]: -0.188 | glycan array binding signal (z-score) [48]: -0.19 | glycan array binding signal (z-score) [49]: -0.191 | glycan array binding signal (z-score) [50]: -0.194 | glycan array binding signal (z-score) [51]: -0.19 | glycan array binding signal (z-score) [52]: -0.177 | glycan array binding signal (z-score) [53]: -0.177 | glycan array binding signal (z-score) [54]: -0.187 | glycan array binding signal (z-score) [55]: -0.185 | glycan array binding signal (z-score) [56]: -0.192 | glycan array binding signal (z-score) [57]: -0.182 | glycan array binding signal (z-score) [58]: -0.185 | glycan array binding signal (z-score) [59]: -0.194 | glycan array binding signal (z-score) [60]: -0.176
